Data on 71 molecules can be found in PubChem BioAssay AID488969 (Vanderbilt High Throughput Screening Facility, 2010).

Each structure is given as a SMILES string. Whole data set: some 110,000 compounds, median “z-score” near -0.1, cut for the highest 2% near 2. The list shows a part of the results.

For this assay, the target named is Metabotropic glutamate receptor 8 (Rattus norvegicus) (UniProt P70579). The experiment in a line: rat mGluR8 modulators via GIRK flux, primary screen, cell-based, thallium flux, HTS (AID 488969). Particulars: HEK293 rat mGluR8, GIRK (G protein-gated inwardly rectifying potassium channel) thallium flux, FluoZin2; at 10 µM; stronger effect = higher value; submaximal glutamate (EC20) added with thallium.
Chain of UniProt P70579 (P70579 whole entry, looked up): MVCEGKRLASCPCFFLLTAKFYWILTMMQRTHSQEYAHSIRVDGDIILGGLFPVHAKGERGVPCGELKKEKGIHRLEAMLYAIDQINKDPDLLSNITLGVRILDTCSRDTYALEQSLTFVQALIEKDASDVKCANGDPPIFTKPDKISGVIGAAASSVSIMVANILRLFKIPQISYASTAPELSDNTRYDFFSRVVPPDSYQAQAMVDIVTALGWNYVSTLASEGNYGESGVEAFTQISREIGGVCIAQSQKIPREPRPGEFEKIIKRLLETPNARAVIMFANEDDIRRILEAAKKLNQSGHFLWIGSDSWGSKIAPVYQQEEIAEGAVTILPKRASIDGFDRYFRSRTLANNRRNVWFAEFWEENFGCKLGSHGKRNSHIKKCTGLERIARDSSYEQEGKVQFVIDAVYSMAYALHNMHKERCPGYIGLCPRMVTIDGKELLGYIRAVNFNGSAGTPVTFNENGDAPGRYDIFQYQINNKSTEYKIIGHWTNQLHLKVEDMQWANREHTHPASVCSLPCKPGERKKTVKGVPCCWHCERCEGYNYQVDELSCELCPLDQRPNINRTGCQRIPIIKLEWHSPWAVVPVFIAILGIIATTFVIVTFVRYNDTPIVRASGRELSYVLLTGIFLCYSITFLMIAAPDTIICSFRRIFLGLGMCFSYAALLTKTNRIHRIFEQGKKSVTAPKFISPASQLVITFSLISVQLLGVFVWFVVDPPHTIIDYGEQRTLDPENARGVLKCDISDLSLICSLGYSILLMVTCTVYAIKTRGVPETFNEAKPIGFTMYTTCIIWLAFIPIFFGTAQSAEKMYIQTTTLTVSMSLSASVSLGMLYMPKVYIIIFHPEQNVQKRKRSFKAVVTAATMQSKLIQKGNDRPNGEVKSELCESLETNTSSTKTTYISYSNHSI
Molecule `COc1ccc2nc(C)cc(SCC(=O)Nc3c(C)cccc3C)c2c1` registered a z-score of 0.37.
Turning to `COc1ccc(/C=N/NC(=O)CNC(=O)c2cccs2)cc1`, the z-score is -0.144.
Turning to `O=C1/C(=C/c2ccc(N3CCOCC3)o2)SC(=Nc2ccccc2)N1CCc1c[nH]c2ccccc12`, the z-score was -2.
`C=CCc1ccc(OCCCOc2ccc(C)cc2OC)c(OC)c1`: the z-score was found to be 1.11.
In the case of `NC(=O)CC(NC(=S)NCc1ccccc1)C(=O)O` (stereo unspecified), the z-score is 0.23.
Molecule `FC(F)Sc1nc(-c2ccccc2)c(-c2ccccc2)n1C(F)F` registered a z-score of 1.41.
With `C=CCN1C(=Nc2cccnc2)SCC1(O)c1ccc(C)cc1` (stereo unspecified) the figure was 2.38.
Next, `CCOc1ccc(-n2ccnc2SCC(=O)Nc2nnc(C)s2)cc1`: 0.15.
Next, `CCOC(=O)c1cccnc1SCC(=O)N(C)c1ccccc1`: 0.069; `CCOC(=O)C1=C(O)C(=O)N(c2ccc(S(N)(=O)=O)cc2)C1c1ccc(Cl)cc1` (stereo unspecified): -0.45.
As to `CN(C)C(=O)CSc1nc2ccccc2c(=O)[nH]1`, the z-score turned out to be 0.00591.
Take `COc1ccccc1N1CCN(C(=O)CSc2nnc(NC(=O)C3CC3)s2)CC1`: the z-score is 0.008.
For `Cc1ccc(CNC(=O)C2CCCN(S(=O)(=O)c3cnc[nH]3)C2)cc1` (stereo unspecified), the z-score was -0.0923.
With `CN(C)/C=C/C(=O)c1ccc(Cl)cc1` the figure was 0.00641.
With `CCn1c(SC(C)C(=O)NC2CCCc3ccccc32)nnc1-c1cccs1` (stereo unspecified) the figure was 0.594; with `Cc1cc(OC(=O)c2ccccc2Cl)cc(=O)n1C`, -0.733; with `O=C(NC(=S)NCCN1CCOCC1)c1ccc(F)cc1`, -0.084.
As for `COc1ccc(N(C(=O)c2ccco2)C(C(=O)NC2CCCC2)c2cccs2)cc1OC` (stereo unspecified), the z-score is -0.111.
Next, `Cc1ccc([N+](=O)[O-])cc1NC(=O)CN(C1CCCCC1)S(=O)(=O)c1ccc(Cl)cc1`: -0.272; `Cc1ccc(CNC(=O)C2CCN(S(=O)(=O)c3c(C)noc3/C=C/c3ccco3)CC2)cc1`: -0.501.
With `CC(=O)c1c(C)n(C)c2ccc(O)cc12` the figure was 0.14; with `CC1CCCN(c2nc3c(c(=O)n(C)c(=O)n3C)n2CCSc2nc3ccccc3s2)C1` (stereo unspecified), -0.497.
Regarding `Cc1ccc(C)c(NC(=S)NCc2cccs2)c1`, the z-score stood at 0.0229.
With `COC(=O)c1nn(-c2ccccc2)c(Cl)c1/C=N/OCc1ccc(Cl)cc1Cl` the figure was -0.0495; with `O=C(CN(Cc1cccs1)C(=O)CSc1nnc(COc2ccccc2)o1)NC1CCCCC1`, -0.028; with `COC(=O)c1nnn(CC(=O)Nc2cccc(OC)c2)c1C(=O)OC`, -0.378.
As for `Cc1ccc(C2/C(=C(/O)c3cnn(-c4ccccc4)c3C)C(=O)C(=O)N2CCN2CCOCC2)o1` (stereo unspecified), the z-score is -0.0577.
With `CCCCNC(=O)/C(=C/c1ccccc1)NC(C)=O` the figure was -0.217; with `C=CCNC(=O)N[C@@H](CCSC)C(=O)OC`, -0.211.
For `CCCCC(c1nnnn1CCOC)N1CCN(C)CC1` (stereo unspecified), the z-score stood at 0.232.
On to `CCc1ccc(NS(=O)(=O)c2ccc3[nH]cc(C(=O)N(C)Cc4ccco4)c(=O)c3c2)cc1`, for which the z-score is -0.15.
For the molecule `COc1cccc(CNC(=O)CCn2c(=O)oc3ccccc32)c1`, the z-score was -0.177.
Next, `COc1cc(OC)cc(C(=O)N2CCC(N3CCCCCC3)CC2)c1`: 1.27.
Regarding `Cc1cc(/C=N/n2cnnc2)c(C)n1-c1ccc(Cl)cc1Cl`, the z-score was -0.06.
With `O=S(=O)(Nc1nc2ccccc2nc1N1CCN(c2ccccn2)CC1)c1ccc(Cl)cc1` the figure was -1.76; with `Cc1ccc(C(NC(=O)N2CCOCC2)C(Cl)Cl)cc1F` (stereo unspecified), -0.2; with `CCC(=O)N1CCc2cc(Br)cc(S(=O)(=O)CCC(=O)NCCc3ccccc3)c21`, -1.43.
Take `CCc1ccc(-c2nc(CN3CCC(C(=O)NCc4ccccc4OC)CC3)c(C)o2)cc1`: the z-score came out at 0.683.
Next, `N#CCC(=N)N1CCN(c2ccccc2Cl)CC1`: 0.229; `CCCCCOc1ccc(Cl)cc1CN1CCOCC1`: -0.125; `CCOC(=O)N1CCN(C(=O)CCn2nc(-c3ccccc3)ccc2=O)CC1`: -1.44.
With `c1ccc(NC2=NCCCCS2)cc1` the figure was 0.19; with `NC(=O)c1cc2cc(Cl)ccc2oc1=O`, -0.214; with `COc1ccc(-n2nc(C(=O)NCC(=O)NCc3ccco3)c3ccccc3c2=O)cc1Cl`, -0.689.
With `O=C(c1c[nH]c2ccccc12)C(O)C(c1ccccc1)N1CCOCC1` (stereo unspecified) the figure was -0.674.
With `Cc1ccc(-n2c(SCC(=O)NCc3ccc4c(c3)OCO4)nnc2-c2cccnc2)c(C)c1`, the z-score was -0.0809.
Next, `C=CCSc1nnc(NC(=O)CSc2nnc(C)s2)s1`: -0.117; `CC(C)(C)NC(=O)c1ccc2c(c1)C1C3CCC(C3)C1C(c1ccccc1)N2` (stereo unspecified): 1.96.
As to `CCc1ccc(C(C)NC(=O)C2(C)CC2(Br)Br)cc1` (stereo unspecified), the z-score was determined as 0.309.
With `COc1ccc(NC(=O)N2CCCC(c3nc(-c4ccc(C(C)C)cc4)no3)C2)cc1` (stereo unspecified) the figure was 0.9.
With `COC(=O)c1ccc(CSc2ccc3nnc(-c4ccccn4)n3n2)o1` the figure was -0.907.
For the molecule `CC(=O)NNc1ncnc2ccccc12`, the z-score was 0.156.
With `Cc1cc(SCC(=O)Nc2ccccc2)nc(C)n1` the figure was 0.42; with `COc1ccc(/C(O)=C2\C(=O)C(=O)N(CCN(C)C)C2c2cccc(OC)c2OC)cc1Cl` (stereo unspecified), -0.0486; with `CCOc1ncccc1C(=O)OCc1ccc(C(=O)OC)o1`, 0.118.
With `CCOc1ccc(NC(=O)CN2C(=O)COc3ccc(Cl)cc32)cc1` the figure was -0.332.
Next, `C=CCn1c(SCC(=O)Nc2c(C)nn(Cc3ccccc3)c2C)nnc1C(O)c1ccccc1` (stereo unspecified): -0.057; `Fc1ccccc1NC(=S)NCCc1ccccc1`: 0.134; `COc1ccc(CN2CC(C(=O)NCc3ccccn3)CC2=O)cc1` (stereo unspecified): -0.181.
`Cc1ccc(C(=O)NCCCNCCCN(C)C)cn1`: the z-score is -0.136.
With `Fc1ccc(NC(=S)NC23CN4CN(CN(C4)C2)C3)cc1` the figure was -0.123; with `O=C(Nc1ccc(F)cc1)N1CCN(C/C=C/c2ccccc2)CC1`, -1.74.
In the case of `O=c1c2c3c(sc2n2c(=S)[nH]nc2n1Cc1ccccc1)CN(Cc1ccccc1)CC3`, the z-score came out at 0.914.
For the molecule `CCOc1ccc(C2C=C(c3ccc(C)cc3)Nc3nnnn32)cc1` (stereo unspecified), the z-score is -0.306.
With `Cc1ccc2nc(-c3ccc(NC(=O)CN4CCN(C(=O)c5ccco5)CC4)cc3)sc2c1` the figure was -0.0309.
With `Cc1cc(C)cc(NC(=O)c2nccnc2C(=O)O)c1` the figure was -0.153.
Next, `O=C(c1cn(-c2ccccc2)nc1-c1cccs1)N1CCOCC1`: -0.0174; `O=C1CC(c2ccccc2)CC(O)=C1C=Nc1cccc(Cl)c1` (stereo unspecified): 0.0963; `CCOc1ccccc1C(=O)N1c2ccccc2Sc2ccccc21`: -2.52.
Take `COc1ccc(-c2n[nH]c(C)c2-c2ccc(Cl)cc2)c(O)c1`: the z-score is -0.148.
`CCc1c(C)nc(SCCOc2ccc(OC(C)C)cc2)[nH]c1=O` displayed a z-score of 0.325.
